From the supplement of paper PMC8728848
The other results are listed elsewhere or left out.

Assays:
Test in all cases: glycan array binding signal (z-score within array); higher = stronger binding
Details in all cases: glycan notation: IUPAC condensed, linker removed
[1] = molecular target: Neu5Ac(a2-3)Gal(b1-3)GlcNAc6S
Summary of the method: (§1)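 The binding signal is a Z-score computed within each array. Data were drawn from 3228 arrays in the Consortium for Functional Glycomics database, restricted to those with a known protein sequence. Scores were averaged over arrays of the same protein sequence at different concentrations or buffers, and over linkers, and negative values can be taken as non-binding.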

[2] = molecular target: Neu5Ac(a2-3)Gal(b1-3)[Fuc(a1-4)]GlcNAc
Summary of the method: as §1

[3] = molecular target: Neu5Ac(a2-3)Gal(b1-3)[Fuc(a1-4)]GlcNAc(b1-3)Gal(b1-3)[Fuc(a1-4)]GlcNAc
Summary of the method: as §1

[4] = molecular target: Neu5Ac(a2-3)Gal(b1-3)[Fuc(a1-4)]GlcNAc(b1-3)Gal(b1-4)[Fuc(a1-3)]GlcNAc
Summary of the method: as §1

[5] = molecular target: Neu5Ac(a2-3)Gal(b1-3)[GlcNAc(b1-6)]GalNAc
Summary of the method: as §1

[6] = molecular target: Neu5Ac(a2-3)Gal(b1-3)[Neu5Ac(a2-6)]GalNAc
Summary of the method: as §1

[7] = molecular target: Neu5Ac(a2-3)Gal(b1-3)[Neu5Ac(a2-6)]GlcNAc(b1-3)[Fuc(a1-3)[Gal(b1-4)]GlcNAc(b1-6)]Gal(b1-4)Glc
Summary of the method: as §1

[8] = molecular target: Neu5Ac(a2-3)Gal(b1-3)]Neu5Ac(a2-3)Gal(b1-4)]GlcNAc
Summary of the method: as §1

[9] = molecular target: Neu5Ac(a2-3)Gal(b1-4)Glc
Summary of the method: as §1

[10] = molecular target: Neu5Ac(a2-3)Gal(b1-4)GlcNAc
Summary of the method: as §1

[11] = molecular target: Neu5Ac(a2-3)Gal(b1-4)GlcNAc(b1-2)Man
Summary of the method: as §1

[12] = molecular target: Neu5Ac(a2-3)Gal(b1-4)GlcNAc(b1-2)Man(a1-3)[GlcNAc(b1-4)][Neu5Ac(a2-3)Gal(b1-4)GlcNAc(b1-2)Man(a1-6)]Man(b1-4)GlcNAc(b1-4)GlcNAc
Summary of the method: as §1

[13] = molecular target: Neu5Ac(a2-3)Gal(b1-4)GlcNAc(b1-2)Man(a1-3)[Neu5Ac(a2-3)Gal(b1-4)GlcNAc(b1-2)Man(a1-6)]Man(b1-4)GlcNAc(b1-4)GlcNAc
Summary of the method: as §1

[14] = molecular target: Neu5Ac(a2-3)Gal(b1-4)GlcNAc(b1-2)Man(a1-3)[Neu5Ac(a2-3)Gal(b1-4)GlcNAc(b1-2)Man(a1-6)]Man(b1-4)GlcNAc(b1-4)[Fuc(a1-6)]GlcNAc
Summary of the method: as §1

[15] = molecular target: Neu5Ac(a2-3)Gal(b1-4)GlcNAc(b1-2)Man(a1-3)[Neu5Ac(a2-6)Gal(b1-4)GlcNAc(b1-2)Man(a1-6)]Man(b1-4)GlcNAc(b1-4)GlcNAc
Summary of the method: as §1

[16] = molecular target: Neu5Ac(a2-3)Gal(b1-4)GlcNAc(b1-2)[Neu5Ac(a2-3)Gal(b1-4)GlcNAc(b1-4)]Man(a1-3)[GlcNAc(b1-4)][Neu5Ac(a2-3)Gal(b1-4)GlcNAc(b1-2)[Neu5Ac(a2-3)Gal(b1-4)GlcNAc(b1-6)]Man(a1-6)]Man(b1-4)GlcNAc(b1-4)GlcNAc
Summary of the method: as §1

[17] = molecular target: Neu5Ac(a2-3)Gal(b1-4)GlcNAc(b1-2)[Neu5Ac(a2-3)Gal(b1-4)GlcNAc(b1-4)]Man(a1-3)[GlcNAc(b1-4)][Neu5Ac(a2-3)Gal(b1-4)GlcNAc(b1-4)Man(a1-6)]Man(b1-4)GlcNAc(b1-4)GlcNAc
Summary of the method: as §1

[18] = molecular target: Neu5Ac(a2-3)Gal(b1-4)GlcNAc(b1-2)[Neu5Ac(a2-3)Gal(b1-4)GlcNAc(b1-6)]Man(a1-6)[Neu5Ac(a2-3)Gal(b1-4)GlcNAc(b1-2)Man(a1-3)]Man(b1-4)GlcNAc(b1-4)GlcNAc
Summary of the method: as §1

[19] = molecular target: Neu5Ac(a2-3)Gal(b1-4)GlcNAc(b1-2)[Neu5Ac(a2-3)Gal(b1-4)GlcNAc(b1-6)]Man(a1-6)[Neu5Ac(a2-3)Gal(b1-4)GlcNAc(b1-2)Man(a1-3)][GlcNAc(b1-4)]Man(b1-4)GlcNAc(b1-4)GlcNAc
Summary of the method: as §1

[20] = molecular target: Neu5Ac(a2-3)Gal(b1-4)GlcNAc(b1-3)Gal
Summary of the method: as §1

[21] = molecular target: Neu5Ac(a2-3)Gal(b1-4)GlcNAc(b1-3)Gal(b1-3)GlcNAc
Summary of the method: as §1

[22] = molecular target: Neu5Ac(a2-3)Gal(b1-4)GlcNAc(b1-3)Gal(b1-4)GlcNAc
Summary of the method: as §1

[23] = molecular target: Neu5Ac(a2-3)Gal(b1-4)GlcNAc(b1-3)Gal(b1-4)GlcNAc(b1-2)Man(a1-3)[Neu5Ac(a2-3)Gal(b1-4)GlcNAc(b1-3)Gal(b1-4)GlcNAc(b1-2)Man(a1-6)]Man(b1-4)GlcNAc(b1-4)GlcNAc
Summary of the method: as §1

[24] = molecular target: Neu5Ac(a2-3)Gal(b1-4)GlcNAc(b1-3)Gal(b1-4)GlcNAc(b1-3)Gal(b1-4)GlcNAc
Summary of the method: as §1

[25] = molecular target: Neu5Ac(a2-3)Gal(b1-4)GlcNAc(b1-3)Gal(b1-4)GlcNAc(b1-3)Gal(b1-4)GlcNAc(b1-2)Man(a1-3)[Neu5Ac(a2-3)Gal(b1-4)GlcNAc(b1-3)Gal(b1-4)GlcNAc(b1-3)Gal(b1-4)GlcNAc(b1-2)Man(a1-6)]GalNAc
Summary of the method: as §1

[26] = molecular target: Neu5Ac(a2-3)Gal(b1-4)GlcNAc(b1-3)Gal(b1-4)GlcNAc(b1-3)GalNAc
Summary of the method: as §1

[27] = molecular target: Neu5Ac(a2-3)Gal(b1-4)GlcNAc(b1-3)Gal(b1-4)GlcNAc(b1-3)[Neu5Ac(a2-3)Gal(b1-4)GlcNAc(b1-3)Gal(b1-4)GlcNAc(b1-6)]GalNAc
Summary of the method: as §1

[28] = molecular target: Neu5Ac(a2-3)Gal(b1-4)GlcNAc(b1-3)Gal(b1-4)GlcNAc(b1-6)[Gal(b1-3)]GalNAc
Summary of the method: as §1

[29] = molecular target: Neu5Ac(a2-3)Gal(b1-4)GlcNAc(b1-3)Gal(b1-4)[Fuc(a1-3)]GlcNAc
Summary of the method: as §1

[30] = molecular target: Neu5Ac(a2-3)Gal(b1-4)GlcNAc(b1-3)GalNAc
Summary of the method: as §1

[31] = molecular target: Neu5Ac(a2-3)Gal(b1-4)GlcNAc(b1-3)[Neu5Ac(a2-3)Gal(b1-4)GlcNAc(b1-6)]GalNAc
Summary of the method: as §1

[32] = molecular target: Neu5Ac(a2-3)Gal(b1-4)GlcNAc(b1-6)GalNAc
Summary of the method: as §1

[33] = molecular target: Neu5Ac(a2-3)Gal(b1-4)GlcNAc(b1-6)[Gal(b1-3)]GalNAc
Summary of the method: as §1

[34] = molecular target: Neu5Ac(a2-3)Gal(b1-4)GlcNAc(b1-6)[Neu5Ac(a2-3)Gal(b1-3)]GalNAc
Summary of the method: as §1

[35] = molecular target: Neu5Ac(a2-3)Gal(b1-4)GlcNAc6S
Summary of the method: as §1

[36] = molecular target: Neu5Ac(a2-3)Gal(b1-4)[Fuc(a1-3)]GlcNAc
Summary of the method: as §1

[37] = molecular target: Neu5Ac(a2-3)Gal(b1-4)[Fuc(a1-3)]GlcNAc(b1-2)Man
Summary of the method: as §1

[38] = molecular target: Neu5Ac(a2-3)Gal(b1-4)[Fuc(a1-3)]GlcNAc(b1-3)Gal
Summary of the method: as §1

[39] = molecular target: Neu5Ac(a2-3)Gal(b1-4)[Fuc(a1-3)]GlcNAc(b1-3)Gal(b1-4)GlcNAc
Summary of the method: as §1

[40] = molecular target: Neu5Ac(a2-3)Gal(b1-4)[Fuc(a1-3)]GlcNAc(b1-3)Gal(b1-4)[Fuc(a1-3)]GlcNAc(b1-3)Gal(b1-4)[Fuc(a1-3)]GlcNAc
Summary of the method: as §1

[41] = molecular target: Neu5Ac(a2-3)Gal(b1-4)[Fuc(a1-3)]GlcNAc(b1-3)GalNAc
Summary of the method: as §1

[42] = molecular target: Neu5Ac(a2-3)Gal(b1-4)[Fuc(a1-3)]GlcNAc(b1-6)[Gal(b1-3)]GalNAc
Summary of the method: as §1

[43] = molecular target: Neu5Ac(a2-3)Gal(b1-4)[Fuc(a1-3)]GlcNAc(b1-6)[Neu5Ac(a2-3)Gal(b1-3)]GalNAc
Summary of the method: as §1

[44] = molecular target: Neu5Ac(a2-3)Gal(b1-4)[Fuc(a1-3)]GlcNAc6S
Summary of the method: as §1

[45] = molecular target: Neu5Ac(a2-3)Gal6S(b1-4)GlcNAc
Summary of the method: as §1

B1: PFL (Pseudomonas fluorescens) (protein)
chain: MSKYAVANQWGGSSAPWHPGGTWVLGARDNQNVVAIEIKSGDGGKSFTGTMTYAGEGPIGFKAQRTGQNQYNVENQWGGNDAPWHPGGKWVIGGRDNQNVIALSVTSSDGGKNLSGTNTYANEGPIGFRGQIE
glycan array binding signal (z-score) [1]: -0.109 | glycan array binding signal (z-score) [2]: -0.12 | glycan array binding signal (z-score) [3]: 0.044 | glycan array binding signal (z-score) [4]: -0.04 | glycan array binding signal (z-score) [5]: -0.113 | glycan array binding signal (z-score) [6]: -0.069 | glycan array binding signal (z-score) [7]: -0.109 | glycan array binding signal (z-score) [8]: -0.111 | glycan array binding signal (z-score) [9]: -0.112 | glycan array binding signal (z-score) [10]: -0.118 | glycan array binding signal (z-score) [11]: -0.099 | glycan array binding signal (z-score) [12]: -0.117 | glycan array binding signal (z-score) [13]: -0.111 | glycan array binding signal (z-score) [14]: -0.108 | glycan array binding signal (z-score) [15]: -0.117 | glycan array binding signal (z-score) [16]: -0.114 | glycan array binding signal (z-score) [17]: -0.117 | glycan array binding signal (z-score) [18]: 0.069 | glycan array binding signal (z-score) [19]: -0.116 | glycan array binding signal (z-score) [20]: -0.107 | glycan array binding signal (z-score) [21]: -0.116 | glycan array binding signal (z-score) [22]: -0.12 | glycan array binding signal (z-score) [23]: -0.103 | glycan array binding signal (z-score) [24]: -0.121 | glycan array binding signal (z-score) [25]: -0.101 | glycan array binding signal (z-score) [26]: -0.113 | glycan array binding signal (z-score) [27]: -0.106 | glycan array binding signal (z-score) [28]: -0.115 | glycan array binding signal (z-score) [29]: -0.114 | glycan array binding signal (z-score) [30]: -0.117 | glycan array binding signal (z-score) [31]: -0.116 | glycan array binding signal (z-score) [32]: -0.114 | glycan array binding signal (z-score) [33]: -0.116 | glycan array binding signal (z-score) [34]: -0.108 | glycan array binding signal (z-score) [35]: -0.115 | glycan array binding signal (z-score) [36]: -0.119 | glycan array binding signal (z-score) [37]: -0.119 | glycan array binding signal (z-score) [38]: -0.117 | glycan array binding signal (z-score) [39]: -0.103 | glycan array binding signal (z-score) [40]: -0.113 | glycan array binding signal (z-score) [41]: -0.078 | glycan array binding signal (z-score) [42]: -0.107 | glycan array binding signal (z-score) [43]: -0.096 | glycan array binding signal (z-score) [44]: -0.117 | glycan array binding signal (z-score) [45]: -0.118
